Test results taken from the supplement of paper PMC3334620.
In all, about 33,000 sequences were measured (“E-score (-0.5 to 0.5)”: median about -0.016, highest 2% from about 0.31 on). Some of the results follow.

Molecular target: Cst6 (UniProt P40535)
Test: PBM E-score (8-mer binding enrichment) (E-score (-0.5 to 0.5)); higher = stronger / more preferred TF binding; most listed sequences are background and not binding sites
Conditions: protein concentration: 200 nM; construct: GST-DNA-binding domain
Summary of the method: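 GST-tagged yeast TFs (full-length or DNA-binding domain) were made by PURExpress in vitro transcription/translation and applied at about 100-200 nM to universal all-10-mer Agilent arrays. The arrays were made double-stranded by primer extension, on fresh or once-stripped slides. Bound protein was detected with fluorescent anti-GST, and scans were normalised with masliner. Each ungapped eight-base word, pooled with its reverse complement, received an E-score (modified Wilcoxon-Mann-Whitney statistic) from the Universal PBM Analysis Suite.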

| Sequence | PBM E-score |
| --- | --- |
| TCTCTGCA | -0.181 |
| CCACATCG | -0.12 |
| CGGGGATA | -0.14 |
| AAGTTGTA | 0.19 |
| AAGGGTCG | -0.0627 |
| GTAGTGAC | 0.332 |
| CGCATCCA | 0.0844 |
| AGGCATTA | 0.133 |
| CATCGACG | 0.0703 |
| GGCTGTAA | 0.0549 |
| CGGGGTCC | -0.272 |
| GCTCGATA | -0.00747 |
| AGATCTCA | -0.00275 |
| GAGAACGA | 0.0186 |
| CTATGGCA | -0.00602 |
| TCATGCCA | 0.248 |
| CAGCCCTC | -0.307 |
| AGGCGGTG | -0.18 |
| ACTAGCCG | -0.143 |
| CCTCTGCA | -0.201 |
| ACACGGCC | 0.0244 |
| CCAACCAA | -0.117 |
| CGCTGAGC | 0.0101 |
| CCTACGAC | -0.166 |
| TCGTAAAA | 0.232 |

| Sequence | PBM E-score |
| --- | --- |
| AGTTGGGC | -0.0683 |
| GGTTTTTA | 0.129 |
| GACCGAAA | 0.0536 |
| CCGCGGGA | -0.0755 |
| ACCGTAAG | 0.109 |
| AAGTCTCG | -0.173 |
| CAAAAGTA | 0.229 |
| ACTAACTA | -0.157 |
| CCGGAGGA | -0.373 |
| ATGGGCTA | 0.0676 |
| TCTTTTAA | 0.176 |
| CTCTCCAA | -0.0525 |
| ATGGCACA | -0.0353 |
| CCGTTGAG | -0.0651 |
| ATTGCGGA | -0.0337 |
| CCGCAAGG | -0.093 |
| CTAACGCA | -0.0268 |
| GAGTCCAC | -0.274 |
| ACTCGAAT | -0.097 |
| CGTAGCGA | -0.0921 |
| AGATTATA | 0.14 |
| AAACACGA | 0.0756 |
| ATTCTCCG | -0.0303 |
| CACACGAG | -0.205 |
| ATTTTGTA | 0.234 |

| Sequence | PBM E-score |
| --- | --- |
| TCAGCGAA | 0.0234 |
| CAGCTTCA | -0.0557 |
| GGTGGGTA | -0.123 |
| CGCGACCA | -0.0267 |
| CACGATTA | 0.0595 |
| ATCCTTCG | -0.0186 |
| GATGGCAC | -0.145 |
| AGTCTGAC | -0.0842 |
| AAAACTGA | 0.0779 |
| GTGAGGTA | 0.119 |
| CAGCCACC | -0.0579 |
| AGTAATAT | 0.301 |
| CTCAGACC | -0.22 |
| CACAAAAG | 0.0872 |
| CAGGGCTC | -0.262 |
| CGAGAAAA | 0.0583 |
| CTAATCGC | 0.0364 |
| AAGAAGCA | 0.0924 |
| GCGCTACC | -0.177 |
| TTATCAAA | 0.223 |
| TATGAACA | 0.16 |
| GCGAGGCA | 0.237 |
| AAGACGCT | -0.218 |
| ATTTAATA | 0.338 |
| AAATGGAA | 0.0873 |

| Sequence | PBM E-score |
| --- | --- |
| GGAAATAC | 0.0425 |
| AGCGTTAC | -0.0278 |
| ATGGAGAA | 0.0595 |
| AGTCCGAC | -0.244 |
| AGAACGGA | 0.00921 |
| CTGCAATC | -0.0213 |
| TAAGATGA | 0.229 |
| ATCCGTAG | -0.255 |
| GACAATAC | 0.157 |
| CCTCGACA | -0.106 |
| CTGTCAGA | -0.107 |
| CTACAGTA | 0.0158 |
| AAAACTCG | 0.107 |
| TCACTGAA | 0.126 |
| CATCTCTC | 0.0128 |
| AGTCGTTC | -0.0621 |
| AGATGGAT | -0.328 |
| ACTCAAAA | 0.192 |
| CACCTCGA | 0.119 |
| CCCAGGTC | -0.242 |
| ATTCTTAC | 0.315 |
| CCTGCGCC | -0.112 |
| ATTAGAGG | -0.0814 |
| ATATAGAC | 0.0893 |
| CACCGTAA | 0.107 |

| Sequence | PBM E-score |
| --- | --- |
| CCCCAGAC | -0.237 |
| ACGCAACG | 0.235 |
| CTAAGATC | 0.0376 |
| CCCAATAG | -0.116 |
| AGCGTTTC | -0.151 |
| GCGTCCGA | -0.131 |
| GGTAGGTA | -0.226 |
| ATCCTGTG | -0.189 |
| GATAGACA | -0.0434 |
| CCAGTCGG | -0.127 |
| ATGGGCGG | -0.145 |
| AATAATTA | 0.325 |
| AAGTATGG | 0.0183 |
| ATTAGTAC | 0.182 |
| CATTAGCA | 0.13 |
| TGACCTAA | 0.362 |
| AGGTGACT | 0.153 |
| CTTTCCGC | 0.0117 |
| CCACATTC | -0.139 |
| GCAGATCC | -0.0905 |
| AGGGGGCC | -0.332 |
| ACGTAGCA | 0.122 |
| AAGGTTAA | -0.0367 |
| CGACGACC | -0.143 |
| CGCCTTCC | -0.151 |

| Sequence | PBM E-score |
| --- | --- |
| ATTCCAAC | 0.0296 |
| GCCCGGCC | -0.332 |
| AAACATTC | 0.0215 |
| GGCGGATA | -0.0938 |
| AGATTAGG | 0.012 |
| CGTGCGTA | 0.133 |
| GCCAACCA | -0.0975 |
| AGCCGGAA | -0.141 |
| CGAGCACA | -0.109 |
| GAATGTAA | 0.21 |
| CGCGCTAA | 0.146 |
| AGCCTTTG | -0.276 |
| AACGGAAT | 0.096 |
| ACAGCCGA | -0.242 |
| CCTCTCCG | -0.304 |
| AGTGACAA | 0.169 |
| AGTAGGCA | 0.205 |
| ACGACTCG | -0.133 |
| TCACGACA | 0.18 |
| TTACGAAA | 0.284 |
| AACTATTG | 0.161 |
| AAGCCATT | 0.058 |
| AGTAACCC | -0.0846 |
| CCCAAAGC | -0.115 |
| ATAGCTTC | -0.00795 |

| Sequence | PBM E-score |
| --- | --- |
| GATACTAC | 0.0654 |
| CTCGGGTC | -0.156 |
| AGGAGGCC | -0.246 |
| GAATATAA | 0.111 |
| CGGTAATA | 0.196 |
| AAGAAAGA | 0.0706 |
| CTAGAAAC | 0.0398 |
| GGTGCCGA | -0.0364 |
| ACGGTCGG | -0.22 |
| TGATCGCA | 0.0445 |
| ATCTGACA | -0.0704 |
| AGCTCTCG | -0.109 |
| CCATGTAG | -0.111 |
| AATGCCCT | -0.00456 |
| CAGGTAAC | -0.214 |
| CGTATCTA | 0.0238 |
| ACAGAAAC | 0.24 |
| CCCTCAAC | -0.209 |
| CGATATCG | 0.109 |
| AGATGAGG | -0.0655 |
| AGGAGTGC | -0.274 |
| GAAACCTC | -0.208 |
